Our source for the antibody binding signal values is the supplement of paper PMC10441789.

The other results are listed elsewhere or left out. Antibody binding of pooled human sera (four to six donors per pool; dilution not stated) to peptides of the Trypanosoma cruzi antigen TSSA on microarrays. Quantile-normalised fluorescence in arbitrary units, mean of duplicate arrays; higher = more binding. No active / inactive call. The uninfected pools are read here as the healthy donors of the same country. The strongest signals lie near the top of the scale (about 60,000).

This test has as its system pooled sera of uninfected people, Brazil. The experiment in a line: antibody binding signal (normalised fluorescence) (arbitrary fluorescence units); higher = stronger serum antibody binding to peptide. How it is done:
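Microarray of overlapping 15-residue peptides of the four Trypanosoma cruzi TSSA reference variants and 8- to 13-residue peptides of TSSAII 24-62, probed with one serum pool per country.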
Regarding ENKPATGEAP, the antibody binding signal worked out at 258.
Under ANGGSTISTPPSGTD stands 135; under GEAPSQPG, 413.
The same measure for STSSTPPGTDKKTAA: 221; for GEAPSQPGASSGE: 114.
The same measure for SGTENKPATGE: 198; for ANGGSTSSTPPS: 297.
TPPGTDKKTAAGGTP: the antibody binding signal came to 626.
Under STPPSGTDKKTAAGE stands 301; under ACTTANGGSTISTPP, 190; under EAPSQPGASS, 162.
Consider PSQPGASSGE, for which the antibody binding signal amounted to 169.
The same measure for GEAPSPSGASSGEAE: 89.9; for SGTDKKTAAGEAPSP: 274.
The same measure for GSTSSTPPSGTE: 173; for TPPSGTENK: 425; for TENKPATGEAP: 260.
The same measure for TENKPATGEAPSQ: 295; for NGGSTSSTPPSGT: 242; for CTTANGGSTSSTPPS: 634.
In turn, EAPSQPGASSGEAEA registered an antibody binding signal of 104.
In turn, STPPSGTEN came in with an antibody binding signal of 128.
With PSGASSGEAEASSNK, the antibody binding signal came out at 183.
Under SSTPPSGTENKP stands 390; under GTENKPATGEAPS, 374; under APSQPGASS, 231.
The same measure for SGTENKPATGEA: 268.
Under APSQPGASSGE stands 146.
For the sequence ANGGSTSS, the antibody binding signal turned out to be 219.
Under TENKPATG stands 277; under AGGTPSPSGASSGEA, 171.
Under SGTENKPATGEAP stands 359.
The same measure for GTENKPATGEAPSQP: 459; for GEAEASSNKNDGSLS: 1190.
With TENKPATGEAPSQPG, the antibody binding signal was determined as 357.
The same measure for GASSGEAEASSNKND: 152; for TPPSGTENKPATGEA: 530; for GTDKKTAAGGTPSPS: 661.
For ATGEAPSQPGAS, the antibody binding signal was 229.
Under SGTENKPATGEAPSQ stands 359.
